Our source for the binding signal values is publication PMC12136788.

First the molecules themselves.
T1: UNK ZnF1-3 (human, UniProt Q9C0B0 31-174)
T1 sequence: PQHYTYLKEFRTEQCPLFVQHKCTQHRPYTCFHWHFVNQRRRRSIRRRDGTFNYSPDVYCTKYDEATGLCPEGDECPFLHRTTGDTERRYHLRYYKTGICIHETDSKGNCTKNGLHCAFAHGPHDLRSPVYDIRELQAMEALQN

B1: chr12:53618122:53618123:+_ENSMUSG00000035133_ENSMUST00000110725|mus_mus|FALSE|FALSE (ssRNA)
RNA: GGGAGUUCUACAGUCCGACGAUCUCUUGUUCCCUCUAAGUUGAUAUAUUCUUCAUAAUCAGGAUGAUUUUUUAAUUUAUUACUAACAGUUUUCCAAGUUGCAUGAUAAUCUCUCACAGUCUGUACAAGUUUUUCAAACUUGUCCAACAGAGGAUUGAGCAUCA
B2: chr1:60041781:60041782:+_ENSMUSG00000041040_ENSMUST00000036540|mus_hu|mus_mus_mus_hu_False|28_98 (ssRNA)
RNA: GGGAGUUCUACAGUCCGACGAUCAAGUUUACAAUAGCUCAACUUUAGCAGUAGUGGCAAAUUUUCUUUUAUUUUCCUUCACAAAAGAAAAUCUUUAUAACCCAGUCCAAUCCCAGAACAUAGUGAAAGCUAUAAAUUCUGACUCAACAGAGGAUUGAGCAUCA
B3: chr8:101931661:101931662:-_ENSG00000164924_ENST00000353245|hu_mus|FALSE|FALSE (ssRNA)
RNA: GGGAGUUCUACAGUCCGACGAUCGCUUCCUAAGUUAGAAAACUCCAUAGACCAAAAUUAUAAAUGGAACACAUUACCUUUUGCCAAUCACCCCCCACCCCAUAAAAGUCCACUUCAAUUGUUGAGGAGUAAGGGGAAAAUGUGCAACAGAGGAUUGAGCAUCA
B4: chr11:87793471:87793472:-_ENSMUSG00000020483_ENSMUST00000020775|mus_mus|mus_mus_mus_hu_False|28_98 (ssRNA)
RNA: GGGAGUUCUACAGUCCGACGAUCUGGACUUGAAAAUAAAAAAAAUAGCUGGAUCCCCCACCCCCCCACAUUGUCAACCCUACACGAGAGUUUUGAAGGCGACUCAUGAAUCAGCAGAGCUCAAACGGCAAUGACCACCCCACCCAACAGAGGAUUGAGCAUCA
B5: chr2:179515052:179515053:+_ENSMUSG00000000305_ENSMUST00000000314|mus_hu|mus_mus_mus_hu_False|38_38 (ssRNA)
RNA: GGGAGUUCUACAGUCCGACGAUCGCUGUCCCAUGCAGUCACCGUGAACGCCACCUGCUCGGAGGGGACCUGCAGCUCCCGGGUGGCGAAGACUGUCCCAUCCGCCCCAACUUUGAAGUCCAUGCUGUUGGUCUCAUAUUGUGUCAACAGAGGAUUGAGCAUCA
B6: chr3:179287964:179287965:+_ENSG00000136518_ENST00000429709|hu_hu|hu_hu_hu_mus_True|18_88 (ssRNA)
RNA: GGGAGUUCUACAGUCCGACGAUCCUUGAGUGGUGAGAUGGCCUCCAUAUUCUCCCUGGGCACGCGGAGGGCAUUGGUGUCUAUGUAGUAGGUGGGCCCGCCCUGCUUGCCUUUGUCGCCAUCUAUUUCCAUCAUUGUACUUCCCAACAGAGGAUUGAGCAUCA
B7: chr13:74460350:74460351:-_ENSMUSG00000021577_ENSMUST00000022062|mus_mus|motif|central (ssRNA)
RNA: GGGAGUUCUACAGUCCGACGAUCCACUGCACAAGAAUAAAGAGACAAAGUCUGGCGCAACUCAAUCCCUUACAGCAAGUACGGCCAAGCUGUUGAUCACAAUCUAUGAAGUGACUCCUUGUUCAUGAGAGCAGAAUUUUACCACAACAGAGGAUUGAGCAUCA
B8: chr3:148802587:148802588:-_ENSG00000071794_ENST00000310053|hu_mus|hu_hu_hu_mus_False|38_78 (ssRNA)
RNA: GGGAGUUCUACAGUCCGACGAUCUCCAACAACUUGUCCUCUCAUAGUUCCAAAUAAAACGGAAUCUUGCUCUUCAUCACUCGUUAGGAAGUCAUCUGGAGGGAUAAUGUCUUGGAAUUCAAAAUGUGGCAAGAAAGUUGAGUACAACAGAGGAUUGAGCAUCA
B9: chr16:17900988:17900989:-_ENSMUSG00000003527_ENSMUST00000003621|mus_mus|FALSE|FALSE (ssRNA)
RNA: GGGAGUUCUACAGUCCGACGAUCGUAGGAGCUGAAGCAGACACCAUGAAGGAGUGUCACGUCCUGGCUGGCUUCCUCUCUAGUUUCCUCCCAGGCUUUCUGACUCAACCCAAGACCACUGCCCUCCUACAUCGAUUGACGAUCCAACAGAGGAUUGAGCAUCA
B10: chr14:70842435:70842436:-_ENSG00000213463_ENST00000256366|hu_mus|FALSE|FALSE (ssRNA)
RNA: GGGAGUUCUACAGUCCGACGAUCAACAACCAGCAACCUGUGCUGUACUCUCAGGGACACAGCACAUCCCGCAUUACGGAAGAGGUCUACAGCAUCUUGGUGCAGCAGGUUCUUCAGAUCUUGGCCAUUUACCGAGAGGAUCUUCAACAGAGGAUUGAGCAUCA
B11: chr1:163115838:163115839:-_ENSG00000143248_ENST00000313961|hu_hu|FALSE|FALSE (ssRNA)
RNA: GGGAGUUCUACAGUCCGACGAUCUGGCUUAGUUUGAUUCUGUUACUAAAUUCUGUGAAUCAUUAUUUAAUCAAAUCUACUAAAGAUUAGAAAAAAUUCUAGCAAGACUUAUAAUCAUGAAAUACAGAAUUAAAAGUUUAAACCCAACAGAGGAUUGAGCAUCA
B12: 16701266_16701386_3632_CDS_ENSG00000145555_ENST00000513610|human|control|control (ssRNA)
RNA: GGGAGUUCUACAGUCCGACGAUCAGCGUUCUGGGGCAUGCAGUAGGUGGACUCGCCGCUGGAGGAGUUGUGUAGGCUCCCGGAGUCCUGCACUGAUGGGGCGAGCAGCACCGUGCUGUCCGCACUGGGGCUGGUGGGCACCACCAACAGAGGAUUGAGCAUCA
B13: chr16:18872548:18872549:-_ENSMUSG00000022706_ENSMUST00000023391|mus_hu|FALSE|FALSE (ssRNA)
RNA: GGGAGUUCUACAGUCCGACGAUCUUGGUAGUUAGGGAUCGGUGGUGUGUAAUGUGGCCCUUCCUUCUCAAAGGGGAACAGGUUAGGAUCCCGCUUGAUGGCCUCAGCAUGGAGCUUCGGGGAUUCCAGUUGCAGUUCCUCCAGCAACAGAGGAUUGAGCAUCA
B14: chr3:125295114:125295115:-_ENSG00000144909_ENST00000296220|hu_mus|FALSE|FALSE (ssRNA)
RNA: GGGAGUUCUACAGUCCGACGAUCAACAUUAAAAAAAGACAUGGCAUUCUGACUUGGUCUCCGCUGGGAUAUGGGAGAAUUACCACUAGAUGCCAGCGAGAAGCUCCGGGACUUCAGGGGAGGGUUAUUCUUUCCAAUAGCUUCCAACAGAGGAUUGAGCAUCA

The list shows a part of the results.

In the experiment the target is T1, UNK ZnF1-3. Briefly: nsRBNS (natural sequence RNA bind-n-seq); RBNS binding buffer (assumed for nsRBNS): 25 mM Tris pH 7.5, 150 mM KCl, 3 mM MgCl2, 0.01% Triton X-100, 500 ug/ml BSA, 20 U/ml SUPERase-In, 4 C; UNK is unkempt and MSI1 is Musashi-1; names of the RNAs are library labels; protein concentration not given here; high values mean tight binding.
Molecule B1 came in with a binding signal of 0.798 enrichment R.
The result for B2 reads 0.367 enrichment R; that for B3, 1.2 enrichment R.
For the molecule B4, the binding signal is 3.19 enrichment R.
Next, B5: 0.751 enrichment R.
The result for B6 reads 0.478 enrichment R; that for B7, 1.15 enrichment R.
Next, B8: 1.44 enrichment R.
In the case of B9, the binding signal stood at 0.864 enrichment R.
Molecule B10 showed a binding signal of 1.28 enrichment R.
The result for B11 reads 0.763 enrichment R; that for B12, 1.09 enrichment R.
The result for B13 reads 0.763 enrichment R; that for B14, 2.07 enrichment R.
